Experimental data reported in PubChem BioAssay AID624417 (National Center for Advancing Translational Sciences (NCATS), 2012).
Screen size: about 410,000 compounds; about 6,400 (1.6%) were called active. The shares of active, inactive and inconclusive entries below differ from those in the screen. Calls follow the shape of the dose curve; as a rule, active = well fitted inhibition curve with a large enough effect; inconclusive = small, poorly fitted or top-dose-only effect; inactive = no such curve, though single readings can be large or run the other way. Potencies of inconclusive entries are left out as doubtful fits.

The molecules below were run against Glucagon-like peptide 1 receptor (Homo sapiens) (UniProt P43220) (assay: qHTS of GLP-1 Receptor Inverse Agonists (Inhibition Mode)). Conditions: HEK293 GLP-1R CRE-luciferase, luminescence, 24 h, GLP-1R form is constitutively active; series mostly up to 38.3 µM.
How it was run: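 Assay principle: reduced luminescence from a cAMP-responsive reporter in HEK293 cells co-expressing a constitutively active GLP-1R. Conditions: 24 hr compound incubation, 37 deg C, 5% CO2.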
Also: nearly all actives have a fitted effect of over 55% in size.
Potency is read from the fitted curve at half-maximal effect; tags tell the direction and shape of the fitted curve.

UniProt P43220, sequence (P43220 whole entry, looked up): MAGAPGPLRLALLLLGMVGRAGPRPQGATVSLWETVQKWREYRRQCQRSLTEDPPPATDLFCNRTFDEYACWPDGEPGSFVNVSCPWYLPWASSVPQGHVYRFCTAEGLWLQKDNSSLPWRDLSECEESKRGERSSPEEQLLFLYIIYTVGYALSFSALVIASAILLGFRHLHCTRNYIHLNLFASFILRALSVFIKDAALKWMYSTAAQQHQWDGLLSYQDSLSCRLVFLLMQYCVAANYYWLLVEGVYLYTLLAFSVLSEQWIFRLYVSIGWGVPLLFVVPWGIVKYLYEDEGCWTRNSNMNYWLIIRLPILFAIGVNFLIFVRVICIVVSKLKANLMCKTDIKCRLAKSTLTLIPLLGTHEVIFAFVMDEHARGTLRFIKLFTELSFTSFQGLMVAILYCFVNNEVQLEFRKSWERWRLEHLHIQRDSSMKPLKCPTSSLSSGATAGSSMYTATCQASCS

How did the Potency turn out when `Cc1cc(N2CCC(C)CC2)nc(NCc2ccccc2)n1` was run?
The Potency was inconclusive [inhibitor, single point].

How did the Potency turn out when `CCc1ccc2nc(NC(=O)CN3C(=O)NC4(CCCC4)C3=O)sc2c1` was run?
Its Potency is inconclusive [inhibitor, partial curve, poor fit].

With `O=C(NNc1ncnc2c1cnn2-c1ccccc1)c1cccc(Cl)c1` as the molecule, how does the Potency read?
The Potency was “inactive”.

With `COc1ccccc1NC(=O)CSc1nnnn1-c1ccc2c(c1)OCO2` as the molecule, how does the Potency read?
The Potency was “inactive”.

Which Potency does the source give for `COc1ccc(OC)c(NC(=O)Nc2c(O)ccc3ccccc23)c1` here?
The Potency was inconclusive [inhibitor, single point].

For `Cc1ccccc1NC(=O)Cc1nc(COC(=O)/C=C/c2ccccc2)cs1`, which Potency is on record?
Its Potency is inconclusive [inhibitor, single point].

Which Potency does the source give for `Cc1ccc(-c2cc(C(=O)N/N=C/c3c[nH]c4ccccc34)n[nH]2)o1` here?
Its Potency is inconclusive [inhibitor, partial curve, poor fit].

For `CCOC(=O)C1CCCN(Cc2ccc(OC)c(OCc3ccccc3)c2)C1` (configuration not stated), which Potency is on record?
The Potency was inconclusive [inhibitor, single point].

For `CCC(=O)N(CCc1ccccc1)Cc1cc2cc(OC)ccc2[nH]c1=O`, which Potency is on record?
The Potency was inconclusive [inhibitor, full curve, poor fit].

`CCN(CC)C(=O)CC(c1ccc(N(C)C)cc1)c1c(OC)cc(OC)c2c(-c3ccccc3)cc(=O)oc12` (configuration not stated) was tested. Which Potency did it give?
Its Potency is inconclusive [inhibitor, single point].

Which Potency does the source give for `CCN(CC)c1ccc(C2CC(=O)NC3=C2C(=O)CC(C)(C)C3)cc1` (configuration not stated) here?
The Potency was inconclusive [inhibitor, single point].

`COc1ccc(OC)c(-c2nc(C(=O)NCC3CCCO3)cc3c2[nH]c2ccccc23)c1` (configuration not stated) was tested. Which Potency did it give?
The Potency was inconclusive [inhibitor, single point].

For `COc1ccc(C(=O)Nc2ccc3nc4n(c(=O)c3c2)CCCCC4)cc1OC`, which Potency is on record?
Its Potency is “inactive”.

How did the Potency turn out when `Cc1n[nH]c(C)c1CCc1nc2c3ccccc3nc(SCC(=O)Nc3ccccc3F)n2n1` was run?
Its Potency is inconclusive [inhibitor, single point].

For `O=S1(=O)N=C(N/N=C/c2cccs2)c2ccccc21`, which Potency is on record?
The Potency was inconclusive [inhibitor, single point].

With `Oc1ccc2ccccc2c1CNc1ccc(Br)cn1` as the molecule, how does the Potency read?
Its Potency is inconclusive [inhibitor, partial curve, poor fit].

How did the Potency turn out when `Cc1ccc(OCCSc2nc3ccccc3n2CC(=O)N2CCOCC2)c(C)c1` was run?
The Potency was “inactive”.

For `O=C(NCCc1ccccc1F)C1CCCN(c2nc3ccccc3s2)C1` (configuration not stated), which Potency is on record?
Its Potency is inconclusive [inhibitor, partial curve, poor fit].

`O=C(c1cnn2c(C(F)F)cc(C3CC3)nc12)N1CCc2ccccc2C1` was tested. Which Potency did it give?
The Potency was inconclusive [inhibitor, partial curve, poor fit].

With `O=C(CN1CCN(S(=O)(=O)c2ccccc2C(F)(F)F)CC1)NCc1cccs1` as the molecule, how does the Potency read?
The Potency was inconclusive [inhibitor, single point].

How did the Potency turn out when `O=C(COC(=O)/C=C/c1cccc(C(F)(F)F)c1)NC(c1ccccc1)c1ccccc1` was run?
The Potency was “inactive”.

How did the Potency turn out when `Cc1cccc(C)c1NC(=O)CNCC(=O)N(C)C` was run?
The Potency was “inactive”.

Which Potency does the source give for `C=CCOC(=O)C1=C(C)NC(SC)=C(C#N)C1c1cccs1` (configuration not stated) here?
Its Potency is inconclusive [inhibitor, partial curve, poor fit].

How did the Potency turn out when `Cc1ccc(-c2cc(C(=O)Nc3ccc4c(c3)OCCO4)c3ccccc3n2)cc1` was run?
Its Potency is inconclusive [inhibitor, partial curve, poor fit].

With `CC(c1ccccc1)N1C(=O)C2C3CCC(C3)C2C1=O` (configuration not stated) as the molecule, how does the Potency read?
The Potency was inconclusive [inhibitor, partial curve, poor fit].

Which Potency does the source give for `Cc1ccc(C2=N/C(=C\c3cccs3)C(=O)N2Nc2ccccc2)cc1` here?
Its Potency is inconclusive [inhibitor, partial curve, poor fit].

With `O=C(CN1CCCCCCC1)NC(=O)NC1CCCCC1` as the molecule, how does the Potency read?
The Potency was active: 3.98 µM.

`COc1cc(C(=O)Nc2cccc(C)c2C)ccc1OCC(=O)N1CCOCC1` was tested. Which Potency did it give?
Its Potency is “inactive”.

With `CCc1cc(C(=O)COc2ccc(F)cc2)c(O)cc1O` as the molecule, how does the Potency read?
Its Potency is inconclusive [inhibitor, partial curve, poor fit].

How did the Potency turn out when `CC1=NN(C(=O)c2ccoc2C)C(O)(C(F)(F)F)C1` (configuration not stated) was run?
The Potency was inconclusive [inhibitor, partial curve, poor fit].

How did the Potency turn out when `CCOC(=O)c1c(C)n(-c2ccccc2)c2ccc(OCCN(C)C)cc12` was run?
Its Potency is inconclusive [inhibitor, partial curve].

Which Potency does the source give for `CN(C)c1ccc(NC(=O)c2ccc(Cn3cc([N+](=O)[O-])cn3)cc2)cc1` here?
The Potency was inconclusive [inhibitor, full curve].

With `O=C(NC(=S)Nc1cccc(C(F)(F)F)c1)c1ccc2nonc2c1` as the molecule, how does the Potency read?
Its Potency is inconclusive [inhibitor, single point].

Which Potency does the source give for `O=C(NC1CCCN(CCc2ccccc2)C1)c1c[nH]c2ccccc12` (configuration not stated) here?
Its Potency is inconclusive [inhibitor, single point].

Which Potency does the source give for `CCCN1C(=O)/C(=C/c2ccc(C)s2)SC1=Nc1ccc(OC)cc1` here?
The Potency was “inactive”.

`Cc1ccc(NC(=O)CCS(=O)(=O)c2ccc3c(c2)NC(=O)C(C)S3)cc1Cl` (configuration not stated) was tested. Which Potency did it give?
The Potency was inconclusive [inhibitor, partial curve, poor fit].

How did the Potency turn out when `Cc1nn(-c2ccccc2)c(Cl)c1C(=O)N1CCN(c2ncnc3c2cnn3-c2ccccc2)CC1` was run?
The Potency was inconclusive [inhibitor, partial curve, poor fit].

With `CN(C(=O)COC(=O)c1ccccc1Nc1ccccc1)c1c(N)n(Cc2ccccc2)c(=O)[nH]c1=O` as the molecule, how does the Potency read?
The Potency was inconclusive [inhibitor, single point].

For `Cc1ccc2c(c1)N(C(=O)CCC(=O)NC1CCCCCC1)CC(C)O2` (configuration not stated), which Potency is on record?
Its Potency is inconclusive [inhibitor, single point].

Which Potency does the source give for `O=C1C(Cl)=C(NCc2cccnc2)C(=O)c2ccccc21` here?
The Potency was inconclusive [inhibitor, single point].

How did the Potency turn out when `Cc1cccc(NC(=S)NCc2ccc(F)cc2)c1` was run?
Its Potency is inconclusive [inhibitor, partial curve, poor fit].

How did the Potency turn out when `Cc1cc(-c2ccccc2)nc(N/N=C/c2ccc([N+](=O)[O-])cc2)n1` was run?
Its Potency is inconclusive [inhibitor, single point].

For `COc1cc(OC)cc(C(=O)N2CC(=O)Nc3ccccc32)c1`, which Potency is on record?
Its Potency is inconclusive [inhibitor, full curve, poor fit].

For `c1ccc(OCCNc2ccn3nc(-c4ccccc4)cc3n2)cc1`, which Potency is on record?
The Potency was inconclusive [inhibitor, single point].

`CCc1ccc(NC(=S)/N=C(\N)Nc2nc(C)c3cc(CC)ccc3n2)cc1` was tested. Which Potency did it give?
The Potency was inconclusive [inhibitor, partial curve, poor fit].

For `CC(C)c1ccc(NC(=O)C2CCCCN2S(=O)(=O)c2ccccc2)cc1` (configuration not stated), which Potency is on record?
Its Potency is inconclusive [inhibitor, partial curve, poor fit].

For `Cc1ccc(-c2cn3c(n2)sc2cc(C(=O)N4CCCCC4)ccc23)cc1`, which Potency is on record?
Its Potency is inconclusive [inhibitor, partial curve, poor fit].

For `Cc1ccc(NC(=O)c2cc(C)n(-c3ccccc3)c2C)cc1`, which Potency is on record?
Its Potency is “inactive”.

With `C/C=C/n1ccnc1CC(O)(c1ccccc1)c1ccc(C)cc1` (configuration not stated) as the molecule, how does the Potency read?
The Potency was inconclusive [inhibitor, single point].

With `Cc1nc2ccccc2c2oc(C(=O)NCCCN3CCCC(C)C3)cc12` (configuration not stated) as the molecule, how does the Potency read?
The Potency was inconclusive [inhibitor, single point].

With `Cc1nc(NCc2ccco2)c2c(C)c(C)sc2n1` as the molecule, how does the Potency read?
The Potency was inconclusive [inhibitor, partial curve].

How did the Potency turn out when `COc1cccc(/C=N/NC(=O)CC(C)O)c1OC/C=C/c1ccccc1` (configuration not stated) was run?
Its Potency is inconclusive [inhibitor, single point].

With `CCC1Nc2ncnc(N3CCN(c4ccccc4)CC3)c2N(Cc2ccccc2)C1=O` (configuration not stated) as the molecule, how does the Potency read?
Its Potency is inconclusive [inhibitor, single point].

With `Cc1ccccc1C1NC(c2ccccc2C)C(C)C(=O)C1C` (configuration not stated) as the molecule, how does the Potency read?
The Potency was inconclusive [inhibitor, partial curve, poor fit].

Which Potency does the source give for `Cc1ccc(CNC(=O)CCCCn2c(=O)c3ccccc3n(Cc3ccc(Cl)cc3)c2=O)cc1` here?
The Potency was “inactive”.

How did the Potency turn out when `CC1CCCC(NC(=O)C2N(CCCN3CCCC3)C(=O)C3C(C(=O)Nc4ccc(Cl)cc4)C4C=CC32O4)C1C` (configuration not stated) was run?
Its Potency is inconclusive [inhibitor, single point].

Which Potency does the source give for `CC(C)(C)NC(=O)C[C@H]1C[C@H](C(=O)N2CCOCC2)[C@@]2(CCC3CCCC3)c3[nH]c4cc(-c5ccco5)ccc4c3CCN2C1=O` here?
Its Potency is inconclusive [inhibitor, single point].

How did the Potency turn out when `C=CCOc1ccccc1C1C2=C(CC(C)(C)CC2=O)Nc2c1c(=O)n(C)c(=O)n2C` (configuration not stated) was run?
The Potency was “inactive”.

With `CC(C)N(Cc1ccccc1)C(=O)c1cc2ccc3cccnc3c2[nH]1` as the molecule, how does the Potency read?
Its Potency is inconclusive [inhibitor, single point].

Which Potency does the source give for `COc1cc(O)c(C(CC(=O)N2CCCCC2)c2cc(OC)c(OC)c(OC)c2)c(OC)c1` (configuration not stated) here?
Its Potency is “inactive”.

How did the Potency turn out when `Cc1oc(-c2ccc(Cl)cc2)nc1CN1CCC(C(=O)N2CCN(Cc3ccccc3)CC2)CC1` was run?
The Potency was inconclusive [inhibitor, partial curve, poor fit].

Which Potency does the source give for `COc1ccc(/C=N/NC(=O)c2ccn[nH]2)cc1COc1ccc(Cl)cc1` here?
Its Potency is inconclusive [inhibitor, single point].
